Experimental data published in PMC12902886, “Classification of tauopathies from human brain homogenates through salt‐modulated tau amplification” (Alzheimer's & Dementia, 2026).

Biological target: the molecule itself
Test: RT-QuIC (thioflavin T fluorescence of amyloid aggregation); 2 or 4 uM K12/K11 monomer, 10 uM ThT, 250 mM trisodium citrate or 500 mM sodium sulfate, 10 mM HEPES pH 7.4, 37°C, cycles of 60 s orbital shaking at 500 rpm and 60 s rest, 384-well plates; seeded with dilutions of human brain homogenate in N-2 supplement, or spontaneous; no heparin

| Protein | binding result |
| --- | --- |
| K11 tau fragment with alanine mutations at residues 291 and 322 (domain or fragment, tau (microtubule-associated protein tau), human, repeats R1, R2, R3 and R4 and on to residue 400; the methods print '[…] and […]'; Cloned between NdeI and XhoI of pET28; source: E. coli BL21(DE3), purified (HisTrap, acetone precipitation, Superdex 75 SEC)) not shown | binds |
| K12 tau fragment ([…] and […] of full-length human tau) with an alanine mutation at residue 322 (domain or fragment, tau (microtubule-associated protein tau), human, […] (repeat R1); tau (microtubule-associated protein tau), human, […] (repeats R3, R4 and on to residue 400); Cloned between NdeI and XhoI of pET28; Repeat R2 ([…]) is absent; also called extended 3-repeat tau substrate; source: E. coli BL21(DE3), purified (HisTrap, acetone precipitation, Superdex 75 SEC)) not shown | binds |
